Reference: PubChem BioAssay AID488969 (Vanderbilt High Throughput Screening Facility, 2010)
In all, about 110,000 compounds were measured (“z-score”: median about -0.1, highest 2% from about 2 on). Some of the results follow. Calls of active or inactive are those of the source.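 The calls were made as follows: active = z-score in the third read window above 3 or below -3; inactive = the rest.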

Target: Metabotropic glutamate receptor 8 (Rattus norvegicus) (UniProt P70579)
Test: rat mGluR8 modulators via GIRK flux, primary screen, cell-based, thallium flux, HTS (AID 488969)
Conditions: HEK293 rat mGluR8, GIRK (G protein-gated inwardly rectifying potassium channel) thallium flux, FluoZin2; at 10 µM; stronger effect = higher value; submaximal glutamate (EC20) added with thallium

UniProt P70579, sequence (P70579 whole entry, looked up): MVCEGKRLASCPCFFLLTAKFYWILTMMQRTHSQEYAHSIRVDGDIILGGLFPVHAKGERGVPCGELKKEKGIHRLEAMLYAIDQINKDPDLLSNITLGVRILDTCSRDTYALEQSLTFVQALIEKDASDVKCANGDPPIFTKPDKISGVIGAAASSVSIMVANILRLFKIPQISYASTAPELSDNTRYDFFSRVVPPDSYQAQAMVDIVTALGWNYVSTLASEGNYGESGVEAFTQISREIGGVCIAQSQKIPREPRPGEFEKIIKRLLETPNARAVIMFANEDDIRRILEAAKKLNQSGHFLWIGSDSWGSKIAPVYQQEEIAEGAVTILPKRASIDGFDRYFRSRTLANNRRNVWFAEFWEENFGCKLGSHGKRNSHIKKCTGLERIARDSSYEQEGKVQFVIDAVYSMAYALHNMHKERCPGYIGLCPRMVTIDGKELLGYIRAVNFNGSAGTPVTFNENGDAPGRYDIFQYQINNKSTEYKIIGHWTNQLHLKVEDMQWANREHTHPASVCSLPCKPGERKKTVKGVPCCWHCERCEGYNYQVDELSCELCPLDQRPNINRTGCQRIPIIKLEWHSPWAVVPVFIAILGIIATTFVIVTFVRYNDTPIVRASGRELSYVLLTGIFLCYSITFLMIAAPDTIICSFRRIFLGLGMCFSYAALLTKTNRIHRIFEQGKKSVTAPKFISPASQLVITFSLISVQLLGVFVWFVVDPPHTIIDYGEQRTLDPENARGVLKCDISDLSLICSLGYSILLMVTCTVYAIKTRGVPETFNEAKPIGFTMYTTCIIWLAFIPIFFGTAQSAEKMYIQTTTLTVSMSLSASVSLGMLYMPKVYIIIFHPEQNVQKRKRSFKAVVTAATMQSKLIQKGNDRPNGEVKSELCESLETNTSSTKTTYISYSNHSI

| Structure (SMILES) | z-score |
| --- | --- |
| COc1ccc(OCCNS(=O)(=O)c2ccc3oc4ccccc4c3c2)cc1 | -0.0238 |
| CC(=O)N/C(=C\c1ccccc1)C(=O)OCC(=O)NC1CCCC1 | -0.0254 |
| COC(=O)c1cc(NC(=O)Cc2ccccc2[N+](=O)[O-])cc(C(=O)OC)c1 | -0.153 |
| O=[N+]([O-])c1ccc(C2Oc3ccccc3C3CC(c4ccccc4)=NN32)s1 (centres undefined) | -0.151 |
| Cc1c(NC(=O)c2ccc(COc3ccc4ccccc4c3)o2)c(=O)n(-c2ccccc2)n1C | -0.735 |
| C=C1c2ccc(C)cc2NC(=O)N1c1ccccc1 | 0.585 |
| Cc1ccc(S(=O)(=O)c2nc(-c3ccc(F)cc3)oc2SCC(=O)NCC2CCCO2)cc1 (centres undefined) | -0.171 |
| CC(C)(C)c1ccc(OCCON2C(=O)CCC2=O)c(Cl)c1 | active: 3.08 |
| O=C(NC1CCCC1)c1ccc(COCC(F)(F)F)o1 | -0.113 |
| CCOC(=O)C1C(=O)C=C(c2ccc(NS(C)(=O)=O)cc2)CC1c1ccco1 (centres undefined) | 2.57 |
| Cn1c2c(c(=O)n(C)c1=O)C(C(F)(F)F)(C(F)(F)F)N=C(CCC1CCCCC1)N2 | -0.591 |
| CCN1C(=O)CS/C1=C(\C#N)S(=O)(=O)c1ccccc1 | -0.391 |
| COc1ccc(NC(=O)c2ccc(N(C)S(C)(=O)=O)cc2)cc1OC | 0.0779 |
| S=c1[nH]nc(Cc2cccs2)n1-c1ccccc1 | -0.644 |
| CN1C(=O)/C(=C\c2cc(N=Nc3ccccc3)ccc2O)SC1=S | -0.728 |
| Cc1ccc(C(=O)C(C)OC(=O)c2n[nH]c(=O)c3ccccc23)cc1 (centres undefined) | -0.179 |
| CC(C)C(C(=O)Nc1sc2c(c1C#N)CCCCC2)N1C(=O)c2ccccc2C1=O (centres undefined) | -0.18 |
| O=C(COC(=O)c1ccc(O)cc1)Nc1ccccc1-c1ccccc1 | -0.347 |
| CC(Nc1nc(N2CCCCC2)nc2ccccc12)c1ccccc1 (centres undefined) | -2.21 |
| O=C(N/C(=C/c1ccco1)C(=O)N1CCCC1)c1cccs1 | 0.148 |
| COc1cc(/C=N/NC(=O)CN2CCCCC2)ccc1OCc1ccccc1 | 0.0766 |
| CCN(CC)S(=O)(=O)c1ccc(Cl)c(NC(=O)c2cc(Cl)ccc2Cl)c1 | -0.0935 |

| Structure (SMILES) | z-score |
| --- | --- |
| O=C1CCCC(=NCc2ccco2)C1 | 0.0744 |
| COC(=O)CCC(=O)NNC(=O)c1cccc(Br)c1 | -0.79 |
| CCCCCOC(=O)C1C2C=CC3(CN(c4ccccc4C)C(=O)C13)O2 (centres undefined) | -0.35 |
| COc1cc(NS(=O)(=O)c2ccc(NC(=S)NC(=O)c3cccs3)cc2)nc(OC)n1 | -0.131 |
| Cc1cc(C)c[n+](-c2nc3ccccc3nc2C(=C=[N-])C#N)c1 | -0.00621 |
| Cc1ccc(S(=O)(=O)N(C(=O)c2ccco2)c2cc3sc(=O)oc3c3ccccc23)cc1 | -0.0695 |
| CSCC[C@H](NC(=O)CCNC(C)=O)c1nc2ccccc2[nH]1 | 0.0156 |
| COc1ccc(C2C(C(=O)N3CC(C)CC(C)C3)c3ccccc3C(=O)N2C)cc1 (centres undefined) | 0.0797 |
| NC(=O)COC(=O)CCCc1c[nH]c2ccccc12 | -0.891 |
| COc1cc(OC)nc(NC(=O)C(C)C)n1 | -0.45 |
| CCC/C(O)=C1\C(=O)CCCC1=NCCCCCC(=O)O | 0.156 |
| C[C@H](NC(=O)OC(C)(C)C)c1nnc(SCC(=O)c2ccc(Cl)cc2)o1 | 0.135 |
| Cc1ccc(CCSCC(=O)O)cn1 | -0.135 |
| CCN1CCN(C(=O)c2ccc(Cn3c(=O)[nH]c4cc(OC)c(OC)cc4c3=O)cc2)CC1 | -0.289 |
| CC1=C(C(=O)NC(C)c2ccc3c(c2)OCCO3)C2(CCC(C)CC2)OC1=O (centres undefined) | 0.417 |
| COc1cccc2sc(Nc3nc4ccc(NC(C)=O)cc4s3)nc12 | -0.147 |
| COc1ccc(NC(=O)C2CCN(S(C)(=O)=O)CC2)cc1Cl | 0.0392 |
| COc1cccc(C(=O)NC2CC3CCCC(C2)N3CC(=O)Nc2ccc(N(C)C)cc2)c1 (centres undefined) | 0.0584 |
| CCCCCOC(=O)c1c(N)n(CCOC)c2nc3ccccc3nc12 | -2.04 |
| CN(C)c1ccc(CNCCC2CCOC(C)(C)C2)cc1 (centres undefined) | 0.694 |
| CC(=O)c1ccc(NC(=O)COC(=O)CCC(=O)c2cccs2)cc1 | 0.114 |
| CCCn1c2c(c(O)c(C(=O)Nc3ncccc3C)c1=O)CCCC2 | -0.047 |

| Structure (SMILES) | z-score |
| --- | --- |
| CC1CCN(Cc2nc3c(c(=O)n(C)c(=O)n3C)n2Cc2c(F)cccc2Cl)CC1 | -0.27 |
| O=[N+]([O-])c1c(NCCCO)cc(N2CCN(Cc3ccc4c(c3)OCO4)CC2)c2nonc12 | -0.819 |
| CCCn1c(NC(=S)Nc2ccccc2)nc2ccccc21 | 2.89 |
| COc1ccc(S(=O)(=O)NCCSc2ccccc2)cc1OC | 0.146 |
| Cc1ccc(C)c(NC(=O)c2ncn[nH]2)c1 | -0.302 |
| Cn1c(CNc2nc3ccccc3n2CCN2CCCCC2)nc2ccccc21 | -1.25 |
| COc1ccccc1-c1c(C(F)(F)F)oc2cc(OS(C)(=O)=O)ccc2c1=O | -0.178 |
| O=[N+]([O-])c1ccc(N2CCN(c3ccccc3F)CC2)c(S(=O)(=O)N2CCOCC2)c1 | -0.179 |
| C=C(C)CSc1nnc2n(Cc3ccccc3)c(=O)c3c4c(sc3n12)CCC4 | -0.86 |
| COc1ccc(-c2cn3cccc(C)c3n2)cc1Br | -0.167 |
| CC(=O)Nc1ccccc1-c1nc2ccccc2nc1OCC(=O)c1ccc2ccccc2c1 | -0.276 |
| CCn1c(Sc2ccc(N)cc2Cl)nc2ccccc21 | 0.839 |
| O=C(Nc1cc2c(cc1Cl)OCCCO2)c1ccc(F)cc1 | -0.361 |
| Cc1cc(Cl)ccc1OCC(=O)NCCOC(=O)Nc1sc(=S)n(C)c1C | -0.44 |
| COc1ccc(C(N)=S)c(OC)c1 | -0.0242 |
| CC(C)(C)c1[nH]nc2c1C(c1ccccc1OC(=O)N1CCOCC1)C(C#N)=C(N)O2 (centres undefined) | -2.43 |
| Cc1[nH]nc2c1C(c1ccc(F)cc1)C1=C(CC(C)(C)CC1=O)N2 (centres undefined) | -0.729 |
| Cc1ccc(OCCCn2ccnc2)c([N+](=O)[O-])c1 | -0.08 |
| CCN(CC)CCCn1c(=S)[nH]c2cc(Cl)ccc2c1=O | active: 4.1 |
| N#CC(=C1N=c2ccccc2=N1)c1c(O)[nH]c2ccccc12 | 0.0967 |
| CCCCOC(=O)CCc1nc2ccccc2[nH]1 | 0.563 |
| CC(NS(=O)(=O)c1ccc(F)cc1)C(=O)NCc1ccncc1 (centres undefined) | 0.325 |

| Structure (SMILES) | z-score |
| --- | --- |
| COc1ccc(NS(=O)(=O)c2cccc(NC(=O)NC3CCCCC3)c2)cc1 | -0.413 |
| CCOC(=O)c1cccc(N2C(=O)C3C(C(=O)NC4CC4)C4(C)C=CC3(O4)C2C(=O)NC(C)(C)C)c1 (centres undefined) | -0.0413 |
| COc1ccccc1-n1c(CNC(=O)c2ccco2)nnc1SCC(=O)Nc1ccc(F)cc1 | -0.722 |
| Cc1cc(-n2ccc(=O)[nH]c2=O)nc(-c2ccccc2)n1 | -0.208 |
| COc1ccccc1N1CCN(C(=O)c2ccc3[nH]c4c(c3c2)CC(C)CC4)CC1 (centres undefined) | -0.105 |
| CN(Cc1ccccc1)S(=O)(=O)c1ccc(C(=O)Nc2nnc(C3CC3)o2)cc1 | -0.0388 |
| C=CCN(c1ccccc1OC)S(=O)(=O)c1cccc(C(=O)OCC(=O)c2c[nH]c3ccccc23)c1 | 0.0221 |
| CCN(CC)c1ccc(/C=C2/C(=O)ON=C2C)cc1 | -0.917 |
| Cc1nc(Nc2ccccc2)[nH]c(=O)c1CCC(C)C | 2.73 |
| CCOc1ccccc1-n1c(SCC(N)=O)nnc1-c1ccc(O)cc1 | -0.253 |
| Cc1n[nH]c(=O)nc1N1CCc2ccccc2C1 | 0.362 |
| Cc1cccc(N(C2C=CS(=O)(=O)C2)S(=O)(=O)c2ccccc2)c1 (centres undefined) | 0.452 |
| COC(=O)c1sccc1NC(=S)N1CCC(C)CC1 | 0.701 |
| O=C(O)CCCNS(=O)(=O)Cc1ccccc1 | -0.122 |
| Clc1cc(Cl)c2nc(N3CCCC3)sc2c1 | 0.206 |
| O=C(Oc1ccc2c(c1)OCC2=O)c1ccccc1 | 0.436 |
| CC1=NN(C(N)=S)C(=O)C1N=Nc1c(C)cc(C)cc1C (centres undefined) | 0.119 |
| O=C(CN(c1ccccc1)S(=O)(=O)c1ccccc1)NCCSCc1ccco1 | -0.329 |
| CC1=C(C#N)C(NC(=O)c2ccc(C)cc2)(C(F)(F)F)C(=O)N1 (centres undefined) | -0.1 |
| Nc1c(C(=O)NCCN2CCOCC2)c2nc3ccccc3nc2n1-c1ccccc1 | 0.913 |
| COCCSc1nnc(NS(=O)(=O)Cc2ccccc2)s1 | -0.311 |
| C=C(C)COc1ccc(-c2nc(N)ncc2-c2ccc(OC)cc2)c(O)c1 | -1.06 |

| Structure (SMILES) | z-score |
| --- | --- |
| COc1ccc(Cc2nnn(CC(=O)O)n2)cc1 | 0.459 |
| CCn1c(O)c(C(C#N)=C2N=c3ccccc3=N2)c2ccccc21 | -0.126 |
| CCOC(=O)c1cc(NC(=O)c2ccc(C)cc2)c(=O)oc1-c1ccccc1 | 0.203 |
| O=C(NC1CCCCC1)C(c1ccc2ncccc2c1)N(Cc1ccc2c(c1)OCO2)C(=O)c1ccc2c(c1)OCCO2 (centres undefined) | -0.394 |
| C/C(=N\NC(=O)CC(C)C)c1ccc(Cl)c(Cl)c1 | -0.0256 |
| Cc1cc(C(=O)O)cc(S(=O)(=O)N2CCOCC2)c1C | -0.609 |
| O=C(N/N=C/c1cccc(O)c1)c1csc2ccccc12 | -0.869 |
| O=S(=O)(c1ccc(F)cc1)N1CCN(c2nc(-c3ccc(F)cc3)cs2)CC1 | 0.31 |
| CCN1CCN(C(=O)Nc2cccc(C(F)(F)F)c2)CC1 | -0.25 |
| O=C(O)c1cccc(Nc2nc(N3CCOCC3)nc(N3CCOCC3)n2)c1 | -0.785 |
| Cc1[nH]c2ccccc2c1SCC(=O)N1CCCc2ccccc21 | 0.0673 |
| C=CCOC(=O)c1c(C)nc2cc3c(cc2c1C)OCO3 | 0.0676 |
| O=C(Cn1[nH]c(=O)c2ccccc2c1=O)N1CC=C(c2ccccc2)CC1 | -0.326 |
| Cc1ccc(-c2noc(CCCOc3ccc(Cl)cc3Cl)n2)cc1 | -0.0645 |
| Cc1cc(C(=O)OCc2nc3ccccc3s2)c(C)o1 | -0.0566 |
| Cn1c(=O)[nH]c(=O)c2c1nc(NCCCn1ccnc1)n2Cc1ccccc1 | -0.0863 |
| CCCOC(=O)c1ccc(-c2c(C)noc2-c2ccc(OC)cc2O)o1 | -2.4 |
| COc1cc(NC(=O)COC(C)=O)c(C)cc1[N+](=O)[O-] | -0.358 |
| CCC1(c2ccc(F)cc2)NC(=O)N(CC(=O)N2CCOCC2)C1=O (centres undefined) | 0.349 |
| CCn1c(SCC(=O)c2ccc(F)cc2)nnc1-c1ccoc1C | 0.0998 |
| CCOC(=O)C1NN=C(C(=O)c2ccccc2)C1c1ccccc1 (centres undefined) | -0.653 |
